# Test results as given in ChEMBL document CHEMBL4888484, “Replenishing the malaria drug discovery pipeline: Screening and hit evaluation of the MMV Hit Generation Library 1 (HGL1) against asexual blood stage Plasmodium falciparum ,using a nano luciferase reporter read-out” (2022).
# The campaign covered roughly 150,000 compounds. About 540 (0.36%) showed an effect of 50% or more. The list shows a part of the results.
# Tested on: Plasmodium falciparum
# Experiment: Primary screen in NF54 nanoGlo assay, in single point, at 2uM, 72h; a lower Z score goes with more inhibition
# Assay type: functional, Erythrocyte
# Conditions: timepoint 72 hour
SMILES,% Inhibition [%],Z score
Cc1cc(N)n(-c2nc(-c3cccs3)cs2)n1,20,-2.55
COc1ccc(-n2nc(C)c3c(N4CCCN(C(=O)NC(C)(C)C)CC4)nc(C4CC4)nc32)cc1,-10,1.2
COCCn1c(CO)nnc1[C@H]1C[C@@H](NC(=O)c2c(C)cccc2C)C1,2,-0.28
CCN(CC)c1ncnc2c(-c3ccccc3)cn(CC(=O)N3CCCC3)c12,2,-0.35
CCc1c(C(=O)N2CCOC[C@](O)(CN3CCCC3)C2)csc1C,-1,0.11
Cc1nonc1N1CCN(C(=O)c2ccc3c(c2)OCCO3)CC1,-11,1.08
FC(F)Oc1cccc(COc2nnc3ccccn23)c1,-17,1.57
COc1nn(C)cc1CNC(=O)[C@H]1CCCN1C(=O)c1ccccc1,-3,0.39
CN(Cc1ncnn1C)C(=O)NCC1(c2cccs2)CCCCC1,33,-4.71
C=C(C)CN(CC)S(=O)(=O)c1ccc2c(c1)CCO2,-7,0.62
N[C@H]1CCN(C(=O)CCOc2cc(Cl)cc(Cl)c2)C1,-8,1.14
C[C@H]1CN(C(=O)CCc2nc3ccccc3s2)CCN1,-3,0.47
COC(=O)c1ccc(C(C)C)c(NC(=O)CCc2cncn2C)c1,-2,0.23
COc1ccc(CNC(=O)Cc2cc(-c3ccccc3)on2)cc1,-5,0.63
Cc1cc(C)n(CCc2nnc(NC(=O)NCc3ccc(C)o3)s2)n1,-2,0.27
NC(=O)Nc1cccc(NC(=O)C2CCCCC2c2nc3cc(Cl)ccc3[nH]2)c1 (stereo unspecified),-7,0.68
Cc1cc(C)c(C(=O)N2CCC(OCC3CCCC3)CC2)[nH]1,-6,0.89
COc1ccsc1S(=O)(=O)Nc1cnoc1-c1ccccc1,-10,0.84
CN(C1CC(C)(C)N(O)C(C)(C)C1)S(=O)(=O)CC12CCC(CC1=O)C2(C)C (stereo unspecified),-8,0.96
Cc1ccc(CNS(=O)(=O)c2cc(-c3onc(C)c3C)sc2C)cc1,-7,0.71
C=CCn1c(=O)c2sc(N(CC)CC)nc2n(CC(=O)Nc2c(C)cccc2C)c1=O,-17,1.46
CN1C(=O)[C@]2(CCN(C(=O)Cc3ccc(Cl)cc3)C2)c2ccccc21,-9,1.18
Cc1ccc(CN2C(=O)COc3ccc(C(=O)Nc4nccs4)cc32)cc1,-8,1.01
CC(C)CCNC(=O)c1cn2c3c(cccc3c1=O)C[C@@H]2C,4,-0.49
O=C(NCc1nnc2n1CCOC2)[C@@H](O)C1CCCCCCC1,-10,1.01
COc1ccc(F)cc1S(=O)(=O)N1CCC2(CC1)C[C@@H]2NC(=O)c1ccncc1,-1,0.11
Cc1cc(-c2c(C)sc(C)c2S(=O)(=O)N2CCc3ccccc32)on1,-13,2.18

SMILES,% Inhibition [%],Z score
C[C@H](OC(=O)c1ccc2nccnc2c1)C(=O)Nc1c(F)cccc1F,2,-0.24
Cc1ccc2oc(CN3CCC[C@H](c4ccnn4CC(=O)O)C3)c(C)c2c1,7,-1.14
O=C(Nc1ccccc1)c1cc2nc(N3CCCCC3)sc2s1,5,-0.79
CN(Cc1ccccc1)C(=O)C[C@@H]1CCNC[C@@H]1Cc1cc(CN(C)c2ccccc2)on1,31,-3.52
CC[C@@H](CO)NCc1cccc(Cl)c1Cl,-6,0.73
Cc1nccc(N2CC(Nc3cccc(C#N)c3)C2)n1,12,-1.4
O=C(Nc1cccc(NC(=O)c2ccccc2)n1)c1ccccc1,-8,0.99
Cc1ccc(CNC(=O)CN2CCc3[nH]c4c(C)cc(C)cc4c(=O)c3C2)cc1,7,-0.78
Fc1ccc(-c2noc([C@@H]3CCCN3Cc3ncc[nH]3)n2)nc1,-12,2.28
CC(C)c1nc([C@@H]2CCCCCN2C(=O)c2nc(C3CC3)n3ccccc23)no1,-6,0.98
CCCc1nsc(NC23CCC2CN(C(=O)c2ccon2)C3)n1 (stereo unspecified),-13,1.42
CC[C@H]1C(=O)N(C)CCN1C(=O)c1cccnc1C,4,-0.83
CCC[C@H](NC(C)=O)C(=O)NCc1nc(C(F)(F)F)n[nH]1,-4,0.65
CC(=O)Nc1nc(C(=O)Nc2cccnc2)cs1,-3,0.39
CCNC(=O)N1CC=C(C(=O)Nc2ccc(C)cc2)CC1,-6,1.12
CN(C)c1ccnc(C(=O)N(Cc2ccncc2)Cc2cccnc2)c1,-6,0.76
Cc1cc(NC(=O)Cc2ccc(-c3ccccc3)cc2)n(-c2nc3c(c(=O)[nH]2)CCC3)n1,-4,0.86
Cc1noc(C(C)C)c1NC(=O)c1c2ccccc2nn1C,-3,0.38
COc1cccc2nnc(NC(=O)CCC(=O)NCc3ccc(F)c(Cl)c3)n12,7,-1.04
CC1CCCCC1NC(=O)CON=C(N)CN1CCOC(C)(C)C1 (stereo unspecified),-6,1.09
c1ccc(Cn2cccn2)c(CN2CCCn3cncc3C2)c1,-2,0.41
COc1ccc2c(c1O)-c1ccccc1CCN(C)C2,-3,0.38
O=C(Cc1cccnc1)N1CCC(n2c(=O)[nH]c3ccc(F)cc3c2=O)CC1,-8,1.45
O=C(NCC1(c2ccc(Br)cc2Cl)CC1)N1CC[C@@]2(O)C[C@H]2C1,-1,0.12
C[C@]1(C(=O)Nc2cn[nH]c2)CCCN(C(=O)c2ccccc2)C1,-8,1.66
COc1cccc(CN2C[C@@H](F)[C@@H](OCc3nc4ccccc4o3)C2)c1,29,-3.23
